This is one part of the list. The full chains were built here from the parent and the listed change. Values near 0.05 are background.
B1: TEV protease; numbered along this chain (parent)
chain: MGESLFKGPRDYNPISSSICHLTNESDGHTTSLYGIGFGPFIITNKHLFRRNNGTLVVQSLHGVFKVKDTTTLQQHLVDGRDMIIIRMPKDFPPFPQKLKFREPQREERICLVTTNFQTKSMSSMVSDTSCTFPSGDGIFWKHWIQTKDGQCGSPLVSTRDGFIVGIHSASNFTNTNNYFTSVPKNFMELLTNQEAQQWVSGWRLNADSVLWGGHKVFMVKPEEPFQPVKEATQL

Variants of: B1
Assay: raw area under fraction-flipped curve 0-4 h after induction (AUC4h, not background-subtracted), DNA-recorder readout of cleavage of the substrate (dimensionless); higher = more cleavage of the substrate by the protease variant
Details: temperature: 34 °C; time window: 0-4 h after rhamnose induction
Procedure: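 In vivo DNA recorder in E. coli TOP10(DE3) ΔrhaA at 34 °C. Each TEVp single-site mutant (parent TEVp 0) is paired with a single-site variant of the 7-mer TEVs (canonical ENLYFQ|S). The substrate sits between flexible linkers in a Bxb1-sfGFP-TEVs-SsrA fusion, so cleavage stabilises Bxb1 and speeds flipping of a recombination array, read by NGS. The value is the raw area under the fraction-flipped curve over 0-4 h after rhamnose induction (AUC4h), with ≥20 reads per time point. It is not background-subtracted; inactive controls average about 0.047.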
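Note: Bxb1 expression induced with 0.2% (w/v) L-rhamnose at OD600 near 0.5, cultures sampled hourly, flipped fraction per protease–substrate barcode pair counted by paired-end Illumina sequencing.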

MGESLFKGPRDYNPIHSSICHLTNESDGHTTSLYGIGFGPFIITNKHLFRRNNGTLVVQSLHGVFKVKDTTTLQQHLVDGRDMIIIRMPKDFPPFPQKLKFREPQREERICLVTTNFQTKSMSSMVSDTSCTFPSGDGIFWKHWIQTKDGQCGSPLVSTRDGFIVGIHSASNFTNTNNYFTSVPKNFMELLTNQEAQQWVSGWRLNADSVLWGGHKVFMVKPEEPFQPVKEATQL [S16H]
area with substrate ENAYFQS: 0.0655 | area with substrate ENCYFQS: 0.0718 | area with substrate ENDYFQS: 0.0671 | area with substrate ENEYFQS: 0.0624 | area with substrate ENFYFQS: 0.0673 | area with substrate ENGYFQS: 0.058 | area with substrate ENHYFQS: 0.0713 | area with substrate ENIYFQS: 0.0998 | area with substrate ENNYFQS: 0.0517 | area with substrate ENPYFQS: 0.057 | area with substrate ENQYFQS: 0.0601 | area with substrate ENRYFQS: 0.0681 | area with substrate ENSYFQS: 0.0667 | area with substrate ENTYFQS: 0.0619 | area with substrate ENVYFQS: 0.0793 | area with substrate ENYYFQS: 0.0516

MGESLFKGPRDYNPIISSICHLTNESDGHTTSLYGIGFGPFIITNKHLFRRNNGTLVVQSLHGVFKVKDTTTLQQHLVDGRDMIIIRMPKDFPPFPQKLKFREPQREERICLVTTNFQTKSMSSMVSDTSCTFPSGDGIFWKHWIQTKDGQCGSPLVSTRDGFIVGIHSASNFTNTNNYFTSVPKNFMELLTNQEAQQWVSGWRLNADSVLWGGHKVFMVKPEEPFQPVKEATQL [S16I]
area with substrate ENAYFQS: 0.0556 | area with substrate ENCYFQS: 0.0914 | area with substrate ENDYFQS: 0.0569 | area with substrate ENFYFQS: 0.0577 | area with substrate ENGYFQS: 0.0087 | area with substrate ENHYFQS: 0.0667 | area with substrate ENMYFQS: 0.0693 | area with substrate ENNYFQS: 0.0533 | area with substrate ENPYFQS: 0.0594 | area with substrate ENQYFQS: 0.055 | area with substrate ENSYFQS: 0.0617 | area with substrate ENTYFQS: 0.0728 | area with substrate ENVYFQS: 0.0962 | area with substrate ENYYFQS: 0.0626

MGESLFKGPRDYNPILSSICHLTNESDGHTTSLYGIGFGPFIITNKHLFRRNNGTLVVQSLHGVFKVKDTTTLQQHLVDGRDMIIIRMPKDFPPFPQKLKFREPQREERICLVTTNFQTKSMSSMVSDTSCTFPSGDGIFWKHWIQTKDGQCGSPLVSTRDGFIVGIHSASNFTNTNNYFTSVPKNFMELLTNQEAQQWVSGWRLNADSVLWGGHKVFMVKPEEPFQPVKEATQL [S16L]
area with substrate ENAYFQS: 0.0523 | area with substrate ENCYFQS: 0.0667 | area with substrate ENEYFQS: 0.0601 | area with substrate ENFYFQS: 0.0485 | area with substrate ENGYFQS: 0.0557 | area with substrate ENHYFQS: 0.0475 | area with substrate ENMYFQS: 0.0634 | area with substrate ENNYFQS: 0.0488 | area with substrate ENPYFQS: 0.0559 | area with substrate ENQYFQS: 0.0621 | area with substrate ENRYFQS: 0.0479 | area with substrate ENSYFQS: 0.0438 | area with substrate ENVYFQS: 0.0736 | area with substrate ENYYFQS: 0.0251

MGESLFKGPRDYNPIMSSICHLTNESDGHTTSLYGIGFGPFIITNKHLFRRNNGTLVVQSLHGVFKVKDTTTLQQHLVDGRDMIIIRMPKDFPPFPQKLKFREPQREERICLVTTNFQTKSMSSMVSDTSCTFPSGDGIFWKHWIQTKDGQCGSPLVSTRDGFIVGIHSASNFTNTNNYFTSVPKNFMELLTNQEAQQWVSGWRLNADSVLWGGHKVFMVKPEEPFQPVKEATQL [S16M]
area with substrate ENAYFQS: 0.0608 | area with substrate ENCYFQS: 0.0585 | area with substrate ENDYFQS: 0.0592 | area with substrate ENEYFQS: 0.0615 | area with substrate ENFYFQS: 0.07 | area with substrate ENGYFQS: 0.0567 | area with substrate ENHYFQS: 0.0486 | area with substrate ENIYFQS: 0.111 | area with substrate ENKYFQS: 0.0563 | area with substrate ENMYFQS: 0.0883 | area with substrate ENNYFQS: 0.061 | area with substrate ENQYFQS: 0.0302 | area with substrate ENRYFQS: 0.0655 | area with substrate ENSYFQS: 0.0598 | area with substrate ENTYFQS: 0.0645 | area with substrate ENVYFQS: 0.0985 | area with substrate ENWYFQS: 0.0679 | area with substrate ENYYFQS: 0.0314

MGESLFKGPRDYNPINSSICHLTNESDGHTTSLYGIGFGPFIITNKHLFRRNNGTLVVQSLHGVFKVKDTTTLQQHLVDGRDMIIIRMPKDFPPFPQKLKFREPQREERICLVTTNFQTKSMSSMVSDTSCTFPSGDGIFWKHWIQTKDGQCGSPLVSTRDGFIVGIHSASNFTNTNNYFTSVPKNFMELLTNQEAQQWVSGWRLNADSVLWGGHKVFMVKPEEPFQPVKEATQL [S16N]
area with substrate ENAYFQS: 0.052 | area with substrate ENCYFQS: 0.0638 | area with substrate ENDYFQS: 0.0661 | area with substrate ENEYFQS: 0.0658 | area with substrate ENFYFQS: 0.115 | area with substrate ENGYFQS: 0.0758 | area with substrate ENIYFQS: 0.108 | area with substrate ENKYFQS: 0.0584 | area with substrate ENNYFQS: 0.057 | area with substrate ENPYFQS: 0.0625 | area with substrate ENQYFQS: 0.0576 | area with substrate ENRYFQS: 0.0477 | area with substrate ENSYFQS: 0.0536 | area with substrate ENTYFQS: 0.0612 | area with substrate ENVYFQS: 0.0751 | area with substrate ENWYFQS: 0.0679

MGESLFKGPRDYNPIQSSICHLTNESDGHTTSLYGIGFGPFIITNKHLFRRNNGTLVVQSLHGVFKVKDTTTLQQHLVDGRDMIIIRMPKDFPPFPQKLKFREPQREERICLVTTNFQTKSMSSMVSDTSCTFPSGDGIFWKHWIQTKDGQCGSPLVSTRDGFIVGIHSASNFTNTNNYFTSVPKNFMELLTNQEAQQWVSGWRLNADSVLWGGHKVFMVKPEEPFQPVKEATQL [S16Q]
area with substrate ENAYFQS: 0.0677 | area with substrate ENCYFQS: 0.0719 | area with substrate ENDYFQS: 0.0599 | area with substrate ENEYFQS: 0.0627 | area with substrate ENFYFQS: 0.0603 | area with substrate ENGYFQS: 0.0648 | area with substrate ENHYFQS: 0.0634 | area with substrate ENIYFQS: 0.116 | area with substrate ENKYFQS: 0.0698 | area with substrate ENMYFQS: 0.0848 | area with substrate ENNYFQS: 0.0731 | area with substrate ENPYFQS: 0.0618 | area with substrate ENQYFQS: 0.0613 | area with substrate ENSYFQS: 0.0516 | area with substrate ENTYFQS: 0.0591 | area with substrate ENWYFQS: 0.0346 | area with substrate ENYYFQS: 0.0611

MGESLFKGPRDYNPIRSSICHLTNESDGHTTSLYGIGFGPFIITNKHLFRRNNGTLVVQSLHGVFKVKDTTTLQQHLVDGRDMIIIRMPKDFPPFPQKLKFREPQREERICLVTTNFQTKSMSSMVSDTSCTFPSGDGIFWKHWIQTKDGQCGSPLVSTRDGFIVGIHSASNFTNTNNYFTSVPKNFMELLTNQEAQQWVSGWRLNADSVLWGGHKVFMVKPEEPFQPVKEATQL [S16R]
area with substrate ENAYFQS: 0.0868 | area with substrate ENCYFQS: 0.0679 | area with substrate ENDYFQS: 0.0593 | area with substrate ENEYFQS: 0.0658 | area with substrate ENFYFQS: 0.0525 | area with substrate ENGYFQS: 0.0589 | area with substrate ENHYFQS: 0.0613 | area with substrate ENIYFQS: 0.138 | area with substrate ENMYFQS: 0.0902 | area with substrate ENNYFQS: 0.0601 | area with substrate ENPYFQS: 0.0657 | area with substrate ENQYFQS: 0.0559 | area with substrate ENSYFQS: 0.0644 | area with substrate ENTYFQS: 0.0602 | area with substrate ENVYFQS: 0.0785

MGESLFKGPRDYNPITSSICHLTNESDGHTTSLYGIGFGPFIITNKHLFRRNNGTLVVQSLHGVFKVKDTTTLQQHLVDGRDMIIIRMPKDFPPFPQKLKFREPQREERICLVTTNFQTKSMSSMVSDTSCTFPSGDGIFWKHWIQTKDGQCGSPLVSTRDGFIVGIHSASNFTNTNNYFTSVPKNFMELLTNQEAQQWVSGWRLNADSVLWGGHKVFMVKPEEPFQPVKEATQL [S16T]
area with substrate ENAYFQS: 0.063 | area with substrate ENCYFQS: 0.0713 | area with substrate ENDYFQS: 0.057 | area with substrate ENEYFQS: 0.0418 | area with substrate ENFYFQS: 0.0566 | area with substrate ENGYFQS: 0.0627 | area with substrate ENHYFQS: 0.0559 | area with substrate ENIYFQS: 0.0885 | area with substrate ENMYFQS: 0.07 | area with substrate ENNYFQS: 0.0674 | area with substrate ENPYFQS: 0.0879 | area with substrate ENQYFQS: 0.0541 | area with substrate ENRYFQS: 0.0535 | area with substrate ENSYFQS: 0.0597 | area with substrate ENTYFQS: 0.0626 | area with substrate ENVYFQS: 0.0673 | area with substrate ENWYFQS: 0.0646 | area with substrate ENYYFQS: 0.057

Source: the supplement of paper PMC12217912
